Source: PubChem BioAssay AID360 (National Center for Advancing Translational Sciences (NCATS), 2006)
Hit rate of the full screen: of about 48,000 compounds, about 550 (1.1%) were called active. About 4% were inconclusive and are not listed. Rule as the data show it: active = potency below about 15 µM; inconclusive = mostly about 16 µM to 33 µM; inactive = weaker than that. The list shows a part of the results.

target: Lysosomal acid glucosylceramidase (Homo sapiens) (UniProt P04062); assay: Glucocerebrosidase; details: purified enzyme, resorufin glucoside fluorescence (screen aimed at inhibitors), 20 min;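 also: the screen sought inhibitors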
UniProt P04062, sequence (P04062 whole entry, looked up): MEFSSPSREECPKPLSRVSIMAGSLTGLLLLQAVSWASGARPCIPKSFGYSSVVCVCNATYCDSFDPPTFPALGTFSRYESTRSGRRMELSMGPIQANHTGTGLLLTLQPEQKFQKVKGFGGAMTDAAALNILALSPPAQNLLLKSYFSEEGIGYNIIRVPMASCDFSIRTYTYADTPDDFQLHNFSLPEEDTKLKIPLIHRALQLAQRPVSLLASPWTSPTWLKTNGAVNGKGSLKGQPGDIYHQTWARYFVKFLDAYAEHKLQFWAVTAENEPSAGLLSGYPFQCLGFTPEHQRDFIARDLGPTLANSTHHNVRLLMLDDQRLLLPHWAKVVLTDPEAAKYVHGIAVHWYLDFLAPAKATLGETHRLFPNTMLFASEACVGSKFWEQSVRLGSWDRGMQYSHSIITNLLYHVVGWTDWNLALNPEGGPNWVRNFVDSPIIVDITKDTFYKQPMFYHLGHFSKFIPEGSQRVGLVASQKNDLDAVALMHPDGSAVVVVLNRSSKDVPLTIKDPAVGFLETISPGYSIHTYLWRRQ
How it was run: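 Wild-type enzyme at 0.2 nM final in 50mM citric acid/KH2PO4, 10mM sodium taurocholate, 0.01% tween-20, pH 5.9, with resorufin beta-D-glucopyranoside at 30 uM final. Compounds titrated, 20 min at RT, red fluorescence read; AC50 from titration.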
Potency is read from the fitted curve at half-maximal effect.

| SMILES | Potency |
| --- | --- |
| COC(=O)C1=C(C)NC(C)=C(C(=O)OC)C1c1ccc(NC(C)=O)cc1 | inactive: > 76.9 µM |
| Cc1cc(N2CCCC2=O)cc(C)c1CN1C(=O)c2ccccc2C1=O | inactive: > 76.9 µM |
| O=C(CN1C(=O)C2CC=CCC2C1=O)Nc1nccs1 (configuration not stated) | inactive: > 76.9 µM |
| CC1=C(C)C(=O)N(c2ccccn2)C1=O | inactive: > 76.9 µM |
| O=C(CSc1nc(Nc2ccccc2)nc(N2CCOCC2)n1)Nc1ccccc1Cl | inactive: > 76.9 µM |
| N#C/C(=C(/O)COC(=O)Cc1c[nH]c2ccccc12)c1nc2ccccc2[nH]1 | inactive |
| Cc1nc2c3c(-c4ccccc4)nc(N4CCOCC4)nc3nn2c(C)c1CCC(=O)O | inactive: > 76.9 µM |
| COc1ccc(C(=O)NCc2nnc(SCC(=O)Nc3cccc(C(F)(F)F)c3)o2)cc1OC | inactive: > 76.9 µM |
| O=C(NCC1CCCO1)c1nn2c(c1Cl)NC(c1ccc(F)cc1)CC2C(F)(F)F (configuration not stated) | inactive: > 76.9 µM |
| CC(C)c1cc(C(=O)NC2CCCCC2)no1 | inactive: > 76.9 µM |
| CCOc1ccccc1-c1nc(-c2ccc(NC(=O)Cc3ccc(OC)cc3)cc2)no1 | inactive: > 76.9 µM |
| CCOC(=O)c1ccccc1NC(=O)c1cc(S(=O)(=O)N2CCOCC2)ccc1F | inactive: > 76.9 µM |
| CCC(=O)N1CCc2cc(Br)cc(S(=O)(=O)N3CCN(C(=O)c4ccco4)CC3)c21 | inactive: > 76.9 µM |
| Cc1cc(C)nc(N2CCCC(C(=O)NC(C)CCc3ccco3)C2)n1 (configuration not stated) | inactive: > 76.9 µM |
| CS(=O)(=O)N(CC(N)=O)c1ccc(F)c(Cl)c1 | inactive: > 76.9 µM |
| Fc1ccc(C(c2nnnn2Cc2ccco2)N2CCN(C3CCCCC3)CC2)cc1 (configuration not stated) | inactive: > 76.9 µM |
| CCCc1cc(=O)[nH]c(SCC(N)=O)n1 | inactive: > 76.9 µM |
| COC(=O)CSc1nnc(CNc2ccc(F)cc2)o1 | inactive: > 76.9 µM |
| COc1ccc(N2CCN(Cc3cc(=O)oc4c3ccc3ccccc34)CC2)cc1 | active: 3.32 µM |

| SMILES | Potency |
| --- | --- |
| O=C(c1ccc2c(c1)C(=O)N(Cc1ccco1)C2=O)N1CCOCC1 | inactive: > 76.9 µM |
| COC(=O)c1noc(-c2ccc(OC)cc2)n1 | inactive: > 76.9 µM |
| COc1ccccc1N1CCN(c2nc(-c3ccccc3)cc(C(F)(F)F)n2)CC1 | inactive: > 76.9 µM |
| CCn1c(SCC(=O)NC2CCCCC2)nc2c(c1=O)SC(C)C2 (configuration not stated) | inactive: > 76.9 µM |
| CN(C)c1nc(NS(=O)(=O)c2ccc(Cl)cc2)nc(N(C)C)n1 | inactive: > 76.9 µM |
| CC(C)C(C)(C#N)NC(=O)CSc1nnc(-c2ccncc2)n1Cc1ccccc1 (configuration not stated) | inactive: > 76.9 µM |
| Cc1cc(C)n(-c2nc3c(c(=O)[nH]c(=O)n3C)n2Cc2ccccc2)n1 | inactive: > 76.9 µM |
| CC(C)(C)n1nnnc1C(c1cccs1)N1CCN(Cc2ccccc2)CC1 (configuration not stated) | inactive: > 76.9 µM |
| COCCCN(C(=O)c1cccnc1SC)c1c(N)n(Cc2ccccc2)c(=O)[nH]c1=O | inactive: > 76.9 µM |
| CCCc1nnc(NC(=O)C(C)N2C(=O)C3C4C=CC(C4)C3C2=O)s1 (configuration not stated) | inactive: > 76.9 µM |
| COC(=O)c1ccccc1NC(=O)COC(=O)CSCC(=O)N1CCOCC1 | inactive: > 76.9 µM |
| Cc1ccc(-c2ccc(CCC(=O)O)n2Cc2ccco2)cc1 | inactive: > 76.9 µM |
| CCc1ccc(OC(=O)c2ccn(CC)n2)cc1 | inactive: > 76.9 µM |
| O=C(N1CCOCC1)N1CCN(C(=O)N(c2ccccc2)c2ccccc2)CC1 | inactive: > 76.9 µM |
| O=C(Cc1cccs1)Nc1ccc(-c2nnn(CC(=O)N3CCOCC3)n2)cc1 | inactive: > 76.9 µM |
| COc1ccc(C(C)(C)C)cc1NC(=O)C1C2C=CC(C2)C1C(=O)O (configuration not stated) | inactive: > 76.9 µM |
| Cc1ccnc(NC(=O)COC(=O)C2COc3ccccc3O2)n1 (configuration not stated) | inactive: > 76.9 µM |
| CC(C)Nc1c(N)c(=O)oc2ccccc12 | inactive: > 76.9 µM |
| COc1ccccc1C(=O)n1nc(-c2ccccc2)nc1N | inactive: > 76.9 µM |

| SMILES | Potency |
| --- | --- |
| CC(=O)NC1(c2cccc(F)c2)CCN(C(=O)Nc2ccc(C#N)cc2)CC1 | inactive: > 76.9 µM |
| COCCOC(=O)C1=C(C)NC(=O)NC1c1cn(-c2ccccc2)nc1-c1cccs1 (configuration not stated) | inactive: > 76.9 µM |
| COCCn1nnnc1C(c1cc2cc(C)cc(C)c2[nH]c1=O)N1CCN(c2ccccc2F)CC1 (configuration not stated) | inactive: > 76.9 µM |
| O=C(O)CCSc1nc2ccccc2c(=O)[nH]1 | inactive: > 76.9 µM |
| COc1ccc(CN2CC(C(=O)NCCCOC(C)C)CC2=O)cc1 (configuration not stated) | inactive: > 76.9 µM |
| Cc1nc(N2CCC(C)CC2)c2c(C)c(C(=O)O)sc2n1 | inactive: > 76.9 µM |
| Cc1nccc2[nH]c(=O)c(C(=O)NCCCN(C)C3CCCCC3)cc12 | inactive: > 76.9 µM |
| O=C(CN1C(=O)CCC1=O)Nc1nc(-c2cccs2)cs1 | inactive: > 76.9 µM |
| c1cn(C23CC4CC(CC(C4)C2)C3)cn1 | inactive: > 76.9 µM |
| Clc1ccc(-c2nnc3sc(-c4ccccn4)nn23)cc1 | inactive: > 76.9 µM |
| O=C(NCCN1CCN(c2ccccc2F)CC1)C1c2ccccc2C(=O)N2CCc3ccccc3C12 (configuration not stated) | inactive: > 76.9 µM |
| Cc1nn(-c2nnc(C)c(=O)[nH]2)c(C)c1SCC(=O)Nc1ccc(C(C)C)cc1 | inactive: > 76.9 µM |
| C=C(C)C(C)(C#CCN1CCCC1)OC(C)=O (configuration not stated) | inactive: > 76.9 µM |
| CCOc1ccccc1-n1c(SCC(=O)NC)nnc1-c1ccco1 | inactive: > 76.9 µM |
| N#Cc1nc(-c2ccccc2F)oc1N1CCCC1 | inactive: > 76.9 µM |
| CCOc1ccc(C(=O)NC2CCN(S(C)(=O)=O)CC2)cc1 | inactive: > 76.9 µM |
| CCC(=O)Nc1ccc(NC(=O)C23CC4CC(CC(C4)C2)C3)cn1 | inactive: > 76.9 µM |
| O=C(NCCc1ccccc1)c1nc2c(nnn2Cc2ccccc2Cl)c(=O)[nH]1 | inactive: > 76.9 µM |
| CCOC(=O)Cc1csc(NC(=O)CSc2nnc(-c3ccncc3)n2Cc2ccco2)n1 | inactive: > 76.9 µM |
